# Hit rate of the full screen: of about 270,000 compounds, about 5,800 (2.1%) were called active. Inconclusive means that the source gave no clear call. Such entries were picked first, then a sample of the others. Calls follow the shape of the dose curve; as a rule, active = well fitted inhibition curve with a large enough effect; inconclusive = small, poorly fitted or top-dose-only effect; inactive = flat fitted curve, though single readings scatter. Potencies beside an inconclusive call are fits to weak or partial responses and may not hold up.
# Molecular target: Microtubule-associated protein tau (Homo sapiens) (UniProt P10636)
# Chain of UniProt P10636 (P10636 whole entry, looked up): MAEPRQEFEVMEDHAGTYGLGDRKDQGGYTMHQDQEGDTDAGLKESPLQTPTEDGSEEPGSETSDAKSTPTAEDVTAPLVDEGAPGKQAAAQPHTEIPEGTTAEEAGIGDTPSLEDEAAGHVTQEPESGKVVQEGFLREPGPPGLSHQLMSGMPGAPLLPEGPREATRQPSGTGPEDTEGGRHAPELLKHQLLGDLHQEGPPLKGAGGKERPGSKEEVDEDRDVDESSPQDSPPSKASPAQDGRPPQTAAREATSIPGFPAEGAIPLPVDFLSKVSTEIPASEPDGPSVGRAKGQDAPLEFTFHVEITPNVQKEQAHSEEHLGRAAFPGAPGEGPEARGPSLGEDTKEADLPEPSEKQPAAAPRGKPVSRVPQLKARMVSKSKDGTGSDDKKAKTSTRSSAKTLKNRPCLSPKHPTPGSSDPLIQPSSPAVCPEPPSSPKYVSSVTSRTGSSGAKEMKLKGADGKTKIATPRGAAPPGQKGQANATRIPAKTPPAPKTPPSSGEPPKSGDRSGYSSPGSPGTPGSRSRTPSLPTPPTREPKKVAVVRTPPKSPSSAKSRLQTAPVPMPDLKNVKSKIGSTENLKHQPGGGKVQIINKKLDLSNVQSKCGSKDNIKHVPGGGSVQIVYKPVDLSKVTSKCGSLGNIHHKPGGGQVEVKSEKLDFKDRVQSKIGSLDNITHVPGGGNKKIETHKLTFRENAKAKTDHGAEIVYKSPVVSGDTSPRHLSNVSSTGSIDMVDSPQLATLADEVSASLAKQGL
# Experiment: qHTS for Inhibitors of Tau Fibril Formation, Thioflavin T Binding; also: nearly all actives have a fitted effect of over 55% in size
# Conditions: recombinant tau K18 P301L (four-repeat tau fragment), heparin-induced fibrillization, ThT fluorescence; series mostly up to 57.4 µM; activity, negative = inhibition: at the top concentration
# Procedure, shortened: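 Heparin-induced fibrillization of the P301L-mutant K18 repeat-domain fragment of human tau was followed by ThT binding in quantitative high-throughput format.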
# % is scaled to controls: 0 for no effect and ±100 for the full control effect; potency is read from the fitted curve at half-maximal effect; tags tell the direction and shape of the fitted curve.
SMILES,Potency,"activity, negative = inhibition"
COc1ccc(CC(=O)NCC2(N3CCCCC3)CCCCC2)cc1,"inconclusive: 39.8 µM [inhibitor, single point]",
Cc1ccc(-c2cnc3n2CCCCC3)cc1,,inactive: -2.22%
CCN(CC)c1ccc(/C=N/NS(=O)(=O)c2ccc(C)c([N+](=O)[O-])c2)cc1,"inconclusive: 17.8 µM [inhibitor, partial curve]",
C=CCc1cccc2ccc(=O)oc12,,inactive: -1.58%
O=C(NNC(=O)c1ccccn1)c1cccc([N+](=O)[O-])c1,,inactive: 0.0471%
CC(=O)OCC(=O)Nc1ccc(Br)c(C)c1,,inactive: 4.49%
COc1ccc(C(=O)NC(=S)Nc2cccc(Cl)c2N2CCOCC2)cc1[N+](=O)[O-],,inactive: -20.2%
CCC(C)(C(=O)NC1CCCCC1)N(Cc1cccs1)C(=O)c1ccccn1 (stereo not drawn),,inactive: -3.19%
COc1cc(COCC(O)CN2CCN(CCN3C(=O)c4cccc5cccc(c45)C3=O)CC2)cc(OC)c1OC (stereo not drawn),"inconclusive: 20 µM [inhibitor, single point]",
Cc1ccc(CNC(=O)c2ccc3c(c2)NC(=O)C(CS(=O)(=O)Cc2cccc(F)c2)N3)cc1 (stereo not drawn),"inconclusive: 8.91 µM [inhibitor, single point]",
CN(C)c1ccc(C(CNC(=O)c2ccccc2Br)c2c[nH]c3ccccc23)cc1 (stereo not drawn),"inconclusive: 25.1 µM [inhibitor, single point]",
COc1ccc(Br)cc1C(=O)Nc1cccc2ncccc12,"inconclusive: 28.2 µM [inhibitor, single point]",
O=C(Nc1nc2c(F)cccc2s1)c1ccc2c(c1)OCCO2,,inactive: -7.67%
COc1ccc(S(=O)(=O)NNC(=O)c2sccc2-n2cccc2)cc1,,inactive: -2.23%
O=C(N/N=C/c1ccc(N2CCOCC2)cc1)c1ccc(O)cc1,active: 5.01 µM,
O=C(N/N=C1/C[C@@H](O)[C@@H](O)[C@@H]2[C@@H]3C(=O)N(Cc4ccc5c(c4)OCO5)C(=O)[C@H]3CC[C@H]12)OCc1ccccc1,,inactive: -4.53% [at 11.5 µM]
O=C(NCc1ccco1)c1sc2ccccc2c1Cl,"inconclusive: 14.1 µM [inhibitor, partial curve]",
COc1ccc(-c2nc3ccccc3c(=O)n2CCOc2cc(C)ccc2C)cc1,,inactive: 2.23%
O=C(O)CCC(=O)Nc1ccc(C(=O)N2CCCCC2)cc1,,inactive: 2.26%
Cc1ccc(Sc2ccc(N3CCC(C(=O)Nc4ccc(Cl)cc4)CC3)nn2)cc1,,inactive: 2.67%
COC/C=C/C1=CC2=CC(=O)C(C)(OC(=O)c3ccco3)C(=O)C2=CO1 (stereo not drawn),active: 25.1 µM,
O=Cc1ccc(-c2ccccc2C(=O)O)o1,,inactive: 10.2%
Cc1cc(SCC(=O)Nc2ccc(O)cc2)n2nc(C)c(-c3ccccc3)c2n1,"inconclusive: 31.6 µM [inhibitor, partial curve]",
